# Source: the supplement of paper PMC8728848
# The list shows a part of the results.
# Assays:
# Assay in all cases: glycan array binding signal (z-score within array); higher = stronger binding
# Conditions in all cases: glycan notation: IUPAC condensed, linker removed
# [1] = target: Gal(b1-3)GlcNAc(b1-2)Man(a1-3)[Gal(b1-3)GlcNAc(b1-2)Man(a1-6)]Man(b1-4)GlcNAc(b1-4)[Fuc(a1-6)]GlcNAc
# Procedure, shortened: (§1)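 Glycan array data came from 3228 arrays in the Consortium for Functional Glycomics database, and only arrays with an available protein sequence were kept. Glycan names were put into IUPAC-condensed notation, and columns mapping to the same glycan were averaged. The binding signal is a within-array Z-score, averaged across arrays of one protein sequence run at different concentrations or buffers and across linkers. A negative Z-score can be read as non-binding.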
# [2] = target: Gal(b1-3)GlcNAc(b1-2)Man(a1-3)[GlcNAc(b1-4)][Gal(b1-3)GlcNAc(b1-2)Man(a1-6)]Man(b1-4)GlcNAc(b1-4)GlcNAc
# Procedure, shortened: as §1
# [3] = target: Gal(b1-3)GlcNAc(b1-2)[Gal(b1-3)GlcNAc(b1-6)]Man(a1-6)[Gal(b1-3)GlcNAc(b1-2)Man(a1-3)]Man(b1-4)GlcNAc(b1-4)GlcNAc
# Procedure, shortened: as §1
# [4] = target: Gal(b1-3)GlcNAc(b1-3)Gal(b1-3)GlcNAc
# Procedure, shortened: as §1
# [5] = target: Gal(b1-3)GlcNAc(b1-3)Gal(b1-4)Glc
# Procedure, shortened: as §1
# [6] = target: Gal(b1-3)GlcNAc(b1-3)Gal(b1-4)GlcNAc
# Procedure, shortened: as §1
# [7] = target: Gal(b1-3)GlcNAc(b1-3)Gal(b1-4)GlcNAc(b1-2)Man(a1-3)[Gal(b1-3)GlcNAc(b1-3)Gal(b1-4)GlcNAc(b1-2)Man(a1-6)]Man(b1-4)GlcNAc(b1-4)GlcNAc
# Procedure, shortened: as §1
# [8] = target: Gal(b1-3)GlcNAc(b1-3)Gal(b1-4)GlcNAc(b1-2)[Gal(b1-3)GlcNAc(b1-3)Gal(b1-4)GlcNAc(b1-6)]Man(a1-6)[Gal(b1-3)GlcNAc(b1-3)Gal(b1-4)GlcNAc(b1-2)Man(a1-3)]Man(b1-4)GlcNAc(b1-4)[Fuc(a1-6)]GlcNAc
# Procedure, shortened: as §1
# [9] = target: Gal(b1-3)GlcNAc(b1-3)Gal(b1-4)GlcNAc(b1-3)Gal(b1-4)GlcNAc(b1-2)[Gal(b1-3)GlcNAc(b1-3)Gal(b1-4)GlcNAc(b1-3)Gal(b1-4)GlcNAc(b1-6)]Man(a1-6)[Gal(b1-3)GlcNAc(b1-3)Gal(b1-4)GlcNAc(b1-3)Gal(b1-4)GlcNAc(b1-2)Man(a1-3)]Man(b1-4)GlcNAc(b1-4)[Fuc(a1-6)]GlcNAc
# Procedure, shortened: as §1
# [10] = target: Gal(b1-3)GlcNAc(b1-3)Gal(b1-4)GlcNAc(b1-6)[Gal(b1-3)GlcNAc(b1-3)]Gal(b1-4)Glc
# Procedure, shortened: as §1
# [11] = target: Gal(b1-3)GlcNAc(b1-3)Gal(b1-4)[Fuc(a1-3)]GlcNAc
# Procedure, shortened: as §1
# [12] = target: Gal(b1-3)GlcNAc(b1-3)Gal(b1-4)[Fuc(a1-3)]GlcNAc(b1-6)[Gal(b1-3)GlcNAc(b1-3)]Gal(b1-4)Glc
# Procedure, shortened: as §1
# [13] = target: Gal(b1-3)GlcNAc(b1-3)GalNAc
# Procedure, shortened: as §1
# [14] = target: Gal(b1-3)GlcNAc(b1-6)Gal(b1-4)GlcNAc
# Procedure, shortened: as §1
# [15] = target: Gal(b1-3)GlcNAc(b1-6)GalNAc
# Procedure, shortened: as §1
# [16] = target: Gal(b1-3)GlcNAc(b1-6)[Gal(b1-3)]GalNAc
# Procedure, shortened: as §1
# Gal(b1-3)GlcNAc6S = target: Gal(b1-3)GlcNAc6S
# Procedure, shortened: as §1
# [17] = target: Gal(b1-3)[Fuc(a1-4)]GlcNAc
# Procedure, shortened: as §1
# [18] = target: Gal(b1-3)[Fuc(a1-4)]GlcNAc(b1-2)Man
# Procedure, shortened: as §1
# [19] = target: Gal(b1-3)[Fuc(a1-4)]GlcNAc(b1-2)Man(a1-3)[Gal(b1-3)[Fuc(a1-4)]GlcNAc(b1-2)Man(a1-6)]Man(b1-4)GlcNAc(b1-4)[Fuc(a1-6)]GlcNAc
# Procedure, shortened: as §1
# [20] = target: Gal(b1-3)[Fuc(a1-4)]GlcNAc(b1-3)Gal(b1-3)[Fuc(a1-4)]GlcNAc
# Procedure, shortened: as §1
# [21] = target: Gal(b1-3)[Fuc(a1-4)]GlcNAc(b1-3)Gal(b1-4)[Fuc(a1-3)]GlcNAc
# Procedure, shortened: as §1
# [22] = target: Gal(b1-3)[Fuc(a1-4)]GlcNAc(b1-6)GalNAc
# Procedure, shortened: as §1
# [23] = target: Gal(b1-3)[GlcNAc(b1-6)]GalNAc
# Procedure, shortened: as §1
# [24] = target: Gal(b1-3)[Neu5Ac(a2-6)]GalNAc
# Procedure, shortened: as §1
# [25] = target: Gal(b1-3)[Neu5Ac(a2-6)]GlcNAc(b1-4)Gal(b1-4)Glc
# Procedure, shortened: as §1
# [26] = target: Gal(b1-3)[Neu5Ac(b2-6)]GalNAc
# Procedure, shortened: as §1
# Gal(b1-4)Gal = target: Gal(b1-4)Gal
# Procedure, shortened: as §1
# [27] = target: Gal(b1-4)GalNAc(a1-3)[Fuc(a1-2)]Gal(b1-4)GlcNAc
# Procedure, shortened: as §1
# [28] = target: Gal(b1-4)GalNAc(b1-3)[Fuc(a1-2)]Gal(b1-4)GlcNAc
# Procedure, shortened: as §1
binder,measurement,setting,value
PX9896A-bth-573-26-573 (Bacteroides thetaiotaomicron) (protein) ETNNLKTKEDMYKYFGTSKSMLTHVYSYMPQGYQLFATSGGIFTEDRYSMRDCASDDGEFGAYADNIQNTNNGNWSPIKTYDDSWTLYRGIRAANSFIAEIAQVDFTRYEHDGQYTNWMKQLKYFPYEARVLRAHYFFELARRYGDIAMPLEVLTEEEANTIGKTPFSEVISFIVSECDDAANNLPDSYVNEPGAEIGRVTKGFAMAVKSKALLYAASKLHNPSMDTELWKKSAKAAIDIINTGLYSLDPQESANNLDSKEVVLMRINGDDSDFEMFNLPLRMTAGTRTSSLIPYSNYPSQNLVDAFETVNGYKVTLENTGWVCEDPAFDPQSPYENRDKRFYRAILANGMSFKDYTIETFKGGADDGIVSQGGSPTGYFLRKYIQEATSFEPGKEAVSKHHWVIYRYAETLLTYAESMVNAFNDVNYTDETYKYSALWAINEVRKNADMPLIPSMGKDEFMERLYNEWRVEFAFEDHRFWDVRRWKIADTTQRELYGVKIEKQADGTFNFYKNLYETRNWRDCMYLYPIPQSELYKNTNLNPQNTGW,glycan array binding signal (z-score),[1],0.143
same,glycan array binding signal (z-score),[2],2.06
same,glycan array binding signal (z-score),[3],-0.293
same,glycan array binding signal (z-score),[4],0.195
same,glycan array binding signal (z-score),[5],-0.989
same,glycan array binding signal (z-score),[6],-0.276
same,glycan array binding signal (z-score),[7],0.372
same,glycan array binding signal (z-score),[8],3.52
same,glycan array binding signal (z-score),[9],0.294
same,glycan array binding signal (z-score),[10],0.153
same,glycan array binding signal (z-score),[11],0.079
same,glycan array binding signal (z-score),[12],0.476
same,glycan array binding signal (z-score),[13],-0.802
same,glycan array binding signal (z-score),[14],-0.322
same,glycan array binding signal (z-score),[15],-0.076
same,glycan array binding signal (z-score),[16],0.949
same,glycan array binding signal (z-score),Gal(b1-3)GlcNAc6S,-0.292
same,glycan array binding signal (z-score),[17],-0.432
same,glycan array binding signal (z-score),[18],-0.522
same,glycan array binding signal (z-score),[19],0.005
same,glycan array binding signal (z-score),[20],0.01
same,glycan array binding signal (z-score),[21],-0.328
same,glycan array binding signal (z-score),[22],-0.38
same,glycan array binding signal (z-score),[23],-0.554
same,glycan array binding signal (z-score),[24],-0.756
same,glycan array binding signal (z-score),[25],-0.406
same,glycan array binding signal (z-score),[26],-0.266
same,glycan array binding signal (z-score),Gal(b1-4)Gal,-0.038
same,glycan array binding signal (z-score),[27],-1.02
same,glycan array binding signal (z-score),[28],-0.814
